{"source": "the supplement of paper PMC8728848", "binders": {"B1": {"name": "Epa15 (Candida glabrata) (protein)", "chain": "MGSSHHHHHHSSGLVPRGSHMASDPTTFPLGCSPEFTKTKKGLSMELYRYDYLPPGSYPCWDSAYLNPSYPRTGYKAKKLIATVDGVSGDINFKFNPKFGCKAIPDYLPSNFNYHEPITITNFTMILYGYFMPKTTAFHTFYVTADDLLFMNFGAGNAFDCCRREETADKFGNYAAYSVWGKKSLKNELTVYLHTGVYYPIRLFYNNRDYIAQLDIRFKTEHSNAIITNFTDYFYSVDDSSLGCPGLI"}}, "test_in_all_cases": "glycan array binding signal (z-score within array); higher = stronger binding", "conditions_in_all_cases": "glycan notation: IUPAC condensed, linker removed", "key": {"[1]": {"biological_target": "Gal(b1-4)GlcNAc(b1-3)Gal(b1-4)GlcNAc(b1-3)Gal(b1-4)GlcNAc(b1-3)Gal(b1-4)GlcNAc(b1-2)Man(a1-3)[Gal(b1-4)GlcNAc(b1-3)Gal(b1-4)GlcNAc(b1-3)Gal(b1-4)GlcNAc(b1-3)Gal(b1-4)GlcNAc(b1-2)Man(a1-6)]Man(b1-4)GlcNAc(b1-4)[Fuc(a1-6)]GlcNAc", "method_in_brief": "(§1)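 The Consortium for Functional Glycomics database supplied 3228 glycan arrays, of which those lacking an available protein sequence were dropped. The binding signal, a within-array Z-score, was averaged across arrays of the same protein sequence and across linkers. Negative scores can be read as non-binding.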"}, "[2]": {"biological_target": "Gal(b1-4)GlcNAc(b1-3)Gal(b1-4)GlcNAc(b1-3)Gal(b1-4)GlcNAc(b1-3)Gal(b1-4)GlcNAc(b1-2)[Gal(b1-4)GlcNAc(b1-3)Gal(b1-4)GlcNAc(b1-3)Gal(b1-4)GlcNAc(b1-3)Gal(b1-4)GlcNAc(b1-6)]Man(a1-6)[Gal(b1-4)GlcNAc(b1-3)Gal(b1-4)GlcNAc(b1-3)Gal(b1-4)GlcNAc(b1-3)Gal(b1-4)GlcNAc(b1-2)Man(a1-3)]Man(b1-4)GlcNAc(b1-4)[Fuc(a1-6)]GlcNAc", "method_in_brief": "as §1"}, "[3]": {"biological_target": "Gal(b1-4)GlcNAc(b1-3)Gal(b1-4)GlcNAc(b1-3)Gal(b1-4)GlcNAc(b1-3)Gal(b1-4)GlcNAc(b1-3)Gal(b1-4)GlcNAc(b1-2)Man(a1-3)[Gal(b1-4)GlcNAc(b1-3)Gal(b1-4)GlcNAc(b1-3)Gal(b1-4)GlcNAc(b1-3)Gal(b1-4)GlcNAc(b1-3)Gal(b1-4)GlcNAc(b1-2)Man(a1-6)]Man(b1-4)GlcNAc(b1-4)GlcNAc", "method_in_brief": "as §1"}, "[4]": {"biological_target": "Gal(b1-4)GlcNAc(b1-3)Gal(b1-4)GlcNAc(b1-3)Gal(b1-4)GlcNAc(b1-3)Gal(b1-4)GlcNAc(b1-3)Gal(b1-4)GlcNAc(b1-2)Man(a1-3)[Gal(b1-4)GlcNAc(b1-3)Gal(b1-4)GlcNAc(b1-3)Gal(b1-4)GlcNAc(b1-3)Gal(b1-4)GlcNAc(b1-3)Gal(b1-4)GlcNAc(b1-2)Man(a1-6)]Man(b1-4)GlcNAc(b1-4)[Fuc(a1-6)]GlcNAc", "method_in_brief": "as §1"}, "[5]": {"biological_target": "Gal(b1-4)GlcNAc(b1-3)Gal(b1-4)GlcNAc(b1-3)Gal(b1-4)GlcNAc(b1-3)Gal(b1-4)GlcNAc(b1-3)Gal(b1-4)GlcNAc(b1-2)[Gal(b1-4)GlcNAc(b1-3)Gal(b1-4)GlcNAc(b1-3)Gal(b1-4)GlcNAc(b1-3)Gal(b1-4)GlcNAc(b1-3)Gal(b1-4)GlcNAc(b1-6)]Man(a1-6)[Gal(b1-4)GlcNAc(b1-3)Gal(b1-4)GlcNAc(b1-3)Gal(b1-4)GlcNAc(b1-3)Gal(b1-4)GlcNAc(b1-3)Gal(b1-4)GlcNAc(b1-2)Man(a1-3)]Man(b1-4)GlcNAc(b1-4)[Fuc(a1-6)]GlcNAc", "method_in_brief": "as §1"}, "[6]": {"biological_target": "Gal(b1-4)GlcNAc(b1-3)Gal(b1-4)GlcNAc(b1-3)Gal(b1-4)GlcNAc(b1-3)Gal(b1-4)GlcNAc(b1-3)Gal(b1-4)GlcNAc(b1-3)Gal(b1-4)GlcNAc(b1-2)Man(a1-3)[Gal(b1-4)GlcNAc(b1-3)Gal(b1-4)GlcNAc(b1-3)Gal(b1-4)GlcNAc(b1-3)Gal(b1-4)GlcNAc(b1-3)Gal(b1-4)GlcNAc(b1-3)Gal(b1-4)GlcNAc(b1-2)Man(a1-6)]Man(b1-4)GlcNAc(b1-4)GlcNAc", "method_in_brief": "as §1"}, "[7]": {"biological_target": "Gal(b1-4)GlcNAc(b1-3)Gal(b1-4)GlcNAc(b1-3)GalNAc", "method_in_brief": "as §1"}, "[8]": {"biological_target": "Gal(b1-4)GlcNAc(b1-3)Gal(b1-4)GlcNAc(b1-3)[Gal(b1-4)GlcNAc(b1-3)Gal(b1-4)GlcNAc(b1-6)]GalNAc", "method_in_brief": "as §1"}, "[9]": {"biological_target": "Gal(b1-4)GlcNAc(b1-3)Gal(b1-4)GlcNAc(b1-6)[Gal(b1-3)]GalNAc", "method_in_brief": "as §1"}, "[10]": {"biological_target": "Gal(b1-4)GlcNAc(b1-3)Gal(b1-4)[Fuc(a1-3)]GlcNAc(b1-3)Gal(b1-4)[Fuc(a1-3)]GlcNAc", "method_in_brief": "as §1"}, "[11]": {"biological_target": "Gal(b1-4)GlcNAc(b1-3)GalNAc", "method_in_brief": "as §1"}, "[12]": {"biological_target": "Gal(b1-4)GlcNAc(b1-3)[Fuc(a1-3)GlcNAc(b1-6)]Gal(b1-4)Glc", "method_in_brief": "as §1"}, "[13]": {"biological_target": "Gal(b1-4)GlcNAc(b1-3)[Gal(b1-4)GlcNAc(b1-6)]Gal(b1-4)GlcNAc", "method_in_brief": "as §1"}, "[14]": {"biological_target": "Gal(b1-4)GlcNAc(b1-3)[Gal(b1-4)GlcNAc(b1-6)]GalNAc", "method_in_brief": "as §1"}, "[15]": {"biological_target": "Gal(b1-4)GlcNAc(b1-3)[GlcNAc(b1-6)]Gal(b1-4)GlcNAc", "method_in_brief": "as §1"}, "[16]": {"biological_target": "Gal(b1-4)GlcNAc(b1-6)Gal(b1-4)GlcNAc", "method_in_brief": "as §1"}, "[17]": {"biological_target": "Gal(b1-4)GlcNAc(b1-6)GalNAc", "method_in_brief": "as §1"}, "[18]": {"biological_target": "Gal(b1-4)GlcNAc(b1-6)[Gal(b1-3)]GalNAc", "method_in_brief": "as §1"}, "[19]": {"biological_target": "Gal(b1-4)GlcNAc(b1-6)[Gal(b1-3)]GlcNAc", "method_in_brief": "as §1"}, "[20]": {"biological_target": "Gal(b1-4)GlcNAc(b1-6)[Gal(b1-4)GlcNAc(b1-3)]GalNAc", "method_in_brief": "as §1"}, "Gal(b1-4)GlcNAc6P": {"biological_target": "Gal(b1-4)GlcNAc6P", "method_in_brief": "as §1"}, "Gal(b1-6)Gal": {"biological_target": "Gal(b1-6)Gal", "method_in_brief": "as §1"}, "Gal3S(b1-3)GalNAc": {"biological_target": "Gal3S(b1-3)GalNAc", "method_in_brief": "as §1"}, "Gal3S(b1-3)GlcNAc": {"biological_target": "Gal3S(b1-3)GlcNAc", "method_in_brief": "as §1"}, "[21]": {"biological_target": "Gal3S(b1-3)[Fuc(a1-4)]GlcNAc", "method_in_brief": "as §1"}, "Gal3S(b1-4)Glc": {"biological_target": "Gal3S(b1-4)Glc", "method_in_brief": "as §1"}, "Gal3S(b1-4)Glc6S": {"biological_target": "Gal3S(b1-4)Glc6S", "method_in_brief": "as §1"}, "Gal3S(b1-4)GlcNAc": {"biological_target": "Gal3S(b1-4)GlcNAc", "method_in_brief": "as §1"}, "Gal3S(b1-4)GlcNAc6S": {"biological_target": "Gal3S(b1-4)GlcNAc6S", "method_in_brief": "as §1"}, "[22]": {"biological_target": "Gal3S(b1-4)[Fuc(a1-3)]Glc6S", "method_in_brief": "as §1"}, "[23]": {"biological_target": "Gal3S(b1-4)[Fuc(a1-3)]GlcNAc", "method_in_brief": "as §1"}, "[24]": {"biological_target": "Gal3S(b1-4)[Fuc(a1-3)]GlcNAc6S", "method_in_brief": "as §1"}, "Gal3S4S(b1-4)GlcNAc": {"biological_target": "Gal3S4S(b1-4)GlcNAc", "method_in_brief": "as §1"}, "Gal3S6S(b1-4)GlcNAc": {"biological_target": "Gal3S6S(b1-4)GlcNAc", "method_in_brief": "as §1"}, "Gal3S6S(b1-4)GlcNAc6S": {"biological_target": "Gal3S6S(b1-4)GlcNAc6S", "method_in_brief": "as §1"}, "Gal4S(b1-4)GlcNAc": {"biological_target": "Gal4S(b1-4)GlcNAc", "method_in_brief": "as §1"}, "Gal4S6S(b1-4)GlcNAc": {"biological_target": "Gal4S6S(b1-4)GlcNAc", "method_in_brief": "as §1"}}, "note": "The list shows a part of the results.", "data": [{"binder": "B1", "values": [{"measurement": "glycan array binding signal (z-score)", "setting": "[1]", "value": 0.332}, {"measurement": "glycan array binding signal (z-score)", "setting": "[2]", "value": 0.688}, {"measurement": "glycan array binding signal (z-score)", "setting": "[3]", "value": 0.912}, {"measurement": "glycan array binding signal (z-score)", "setting": "[4]", "value": 0.714}, {"measurement": "glycan array binding signal (z-score)", "setting": "[5]", "value": 1.71}, {"measurement": "glycan array binding signal (z-score)", "setting": "[6]", "value": 0.654}, {"measurement": "glycan array binding signal (z-score)", "setting": "[7]", "value": 0.613}, {"measurement": "glycan array binding signal (z-score)", "setting": "[8]", "value": 0.814}, {"measurement": "glycan array binding signal (z-score)", "setting": "[9]", "value": -0.241}, {"measurement": "glycan array binding signal (z-score)", "setting": "[10]", "value": 0.413}, {"measurement": "glycan array binding signal (z-score)", "setting": "[11]", "value": -0.05}, {"measurement": "glycan array binding signal (z-score)", "setting": "[12]", "value": 0.257}, {"measurement": "glycan array binding signal (z-score)", "setting": "[13]", "value": 0.969}, {"measurement": "glycan array binding signal (z-score)", "setting": "[14]", "value": 5.02}, {"measurement": "glycan array binding signal (z-score)", "setting": "[15]", "value": -0.483}, {"measurement": "glycan array binding signal (z-score)", "setting": "[16]", "value": 0.738}, {"measurement": "glycan array binding signal (z-score)", "setting": "[17]", "value": 1.65}, {"measurement": "glycan array binding signal (z-score)", "setting": "[18]", "value": 0.697}, {"measurement": "glycan array binding signal (z-score)", "setting": "[19]", "value": 5.53}, {"measurement": "glycan array binding signal (z-score)", "setting": "[20]", "value": 0.595}, {"measurement": "glycan array binding signal (z-score)", "setting": "Gal(b1-4)GlcNAc6P", "value": 0.852}, {"measurement": "glycan array binding signal (z-score)", "setting": "Gal(b1-6)Gal", "value": -0.017}, {"measurement": "glycan array binding signal (z-score)", "setting": "Gal3S(b1-3)GalNAc", "value": -0.385}, {"measurement": "glycan array binding signal (z-score)", "setting": "Gal3S(b1-3)GlcNAc", "value": -0.486}, {"measurement": "glycan array binding signal (z-score)", "setting": "[21]", "value": -0.034}, {"measurement": "glycan array binding signal (z-score)", "setting": "Gal3S(b1-4)Glc", "value": -0.053}, {"measurement": "glycan array binding signal (z-score)", "setting": "Gal3S(b1-4)Glc6S", "value": -0.416}, {"measurement": "glycan array binding signal (z-score)", "setting": "Gal3S(b1-4)GlcNAc", "value": -0.488}, {"measurement": "glycan array binding signal (z-score)", "setting": "Gal3S(b1-4)GlcNAc6S", "value": -0.273}, {"measurement": "glycan array binding signal (z-score)", "setting": "[22]", "value": 0.813}, {"measurement": "glycan array binding signal (z-score)", "setting": "[23]", "value": -0.5}, {"measurement": "glycan array binding signal (z-score)", "setting": "[24]", "value": -0.339}, {"measurement": "glycan array binding signal (z-score)", "setting": "Gal3S4S(b1-4)GlcNAc", "value": -0.528}, {"measurement": "glycan array binding signal (z-score)", "setting": "Gal3S6S(b1-4)GlcNAc", "value": -0.392}, {"measurement": "glycan array binding signal (z-score)", "setting": "Gal3S6S(b1-4)GlcNAc6S", "value": 0.975}, {"measurement": "glycan array binding signal (z-score)", "setting": "Gal4S(b1-4)GlcNAc", "value": -0.451}, {"measurement": "glycan array binding signal (z-score)", "setting": "Gal4S6S(b1-4)GlcNAc", "value": -0.414}]}]}
